Reference: the supplement of paper PMC4967469
By IC50 is meant the dose at which the fit gives 50% viability; a limit (>, <) means that the fit lies beyond the doses tested. AUC sums up the same curve from the lowest dose to the 256-fold higher top dose; the more sensitive the line, the further below 1. Any top dose called inferred comes from the curve model; the source does not state it.

Experiments:
Assay in all cases: Viability of human cancer cell lines after 72 h of drug (GDSC screen)
Bryostatin 1 = compound: CCC/C=C/C=C/C(=O)O[C@H]1/C(=C/C(=O)OC)C[C@H]2C[C@H]([C@@H](C)O)OC(=O)C[C@H](O)C[C@@H]3C[C@H](OC(C)=O)C(C)(C)[C@](O)(C[C@@H]4C/C(=C/C(=O)OC)C[C@H](/C=C/C(C)(C)[C@]1(O)O2)O4)O3 [Bryostatin 1]; conditions: top dose 0.008 µM; top dose inferred
Description: (§1)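 Human cancer cell lines in 384-well plates, medium with 10% serum, drug for 72 h over a 256-fold dose range (nine 2-fold or five 4-fold steps up to the top dose). Adherent lines were fixed and stained with the nucleic acid dye Syto60, suspension lines read with resazurin; signal relative to control wells, capped at 0 and 100%. One two-parameter sigmoid per drug and line, fitted in a mixed model over all curves with the slope shared within a line.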

GW-2580 = compound: COc1ccc(COc2ccc(Cc3cnc(N)nc3N)cc2OC)cc1 [GW-2580]; conditions: top dose 20 µM; top dose inferred
Description: as §1

SGC0946 = compound: CC(C)N(CCCNC(=O)Nc1ccc(C(C)(C)C)cc1)C[C@H]1O[C@@H](n2cc(Br)c3c(N)ncnc32)[C@H](O)[C@@H]1O [SGC0946]; conditions: top dose 0.5 µM; top dose inferred
Description: as §1

Cell Line	AUC (Bryostatin 1)	IC50 (Bryostatin 1)	AUC (GW-2580)	IC50 (GW-2580)	AUC (SGC0946)	IC50 (SGC0946)
JAR (urogenital system, adherent)	0.984	> 8 nM	0.968	> 20000 nM	0.986	> 500 nM
HLE (liver, adherent)	0.988	> 8 nM	0.975	> 20000 nM	0.985	> 500 nM
SW156 (kidney, adherent)	0.986	> 8 nM	0.941	> 20000 nM	0.984	> 500 nM
H-EMC-SS (chondrosarcoma, adherent)	0.97	> 8 nM	0.976	> 20000 nM	0.951	> 500 nM
PCI-38 (head and neck, adherent)	0.983	> 8 nM	0.987	> 20000 nM	0.979	> 500 nM
J82 (bladder, adherent)	0.972	> 8 nM	0.988	> 20000 nM	0.987	> 500 nM
LU-99A (large cell lung carcinoma, adherent)	0.918	> 8 nM	0.983	> 20000 nM	0.961	> 500 nM
M059J (glioma, adherent)	0.688	1.76 nM	0.984	> 20000 nM	0.982	> 500 nM
NCI-H1975 (lung adenocarcinoma, adherent)	0.982	> 8 nM	0.983	> 20000 nM	0.969	> 500 nM
RPMI-8226 (myeloma, suspension)	0.989	> 8 nM	0.984	> 20000 nM	0.977	> 500 nM
AN3-CA (endometrium, adherent)	0.958	> 8 nM	0.978	> 20000 nM	0.983	> 500 nM
HTC-C3 (thyroid, adherent)	0.944	> 8 nM	0.975	> 20000 nM	0.981	> 500 nM
MV-4-11 (leukaemia, suspension)	0.98	> 8 nM	0.985	> 20000 nM	0.965	> 500 nM
SW1088 (glioma, adherent)	0.922	> 8 nM	0.982	> 20000 nM	0.979	> 500 nM
WSU-DLCL2 (B-cell lymphoma, suspension)	0.991	> 8 nM	0.988	> 20000 nM	0.991	> 500 nM
SW872 (soft tissue, adherent)	0.974	> 8 nM	0.989	> 20000 nM	0.988	> 500 nM
IST-MES1 (mesothelioma, adherent)	0.951	> 8 nM	0.982	> 20000 nM	0.986	> 500 nM
L-363 (myeloma, suspension)	0.976	> 8 nM	0.99	> 20000 nM	0.986	> 500 nM
